From article PMC3253113, “Presenilin Is the Molecular Target of Acidic γ-Secretase Modulators in Living Cells” (PLoS ONE, 2012) come the findings set out here.

The test has as its target PSEN1-NTF (Homo sapiens, UniProt P49768). In words: Photo-affinity labeling in vitro, N2a-ANPP membrane preparations. It is filed as binding. As to conditions: N2a-ANPP membranes, 0.25% CHAPSO, 0.5 µM photo-probe, UV, streptavidin purification. How it is done: Subsequently, cells were UV-irradiated on ice for 30 min at 365 nm and for 30 min at 302 nm. As negative controls, UV irradiation was omitted or cells were incubated with DMSO vehicle or compound AR80, which was structurally identical to AR243 but lacked the biotin moiety. Cells were washed and harvested in PBS and incubated with hypotonic buffer (10 mM Tris pH 7.4, 1x protease inhibitor mix) for 10 min on ice. To prepare cellular membranes, cells were passed 10 times through a 30G needle and centrifuged at 800×g, 10 min, 4°C. The post-nuclear supernatant was centrifuged at 18.000×g, 45 min, 4°C. […] The total protein concentration of the membrane preparations was determined by BCA assay, concentrations and volumes of each sample were adjusted, and 5x RIPA buffer was added to a final concentration of 1x RIPA buffer (150 mM NaCl, 1.0% NP-40, 0.5% sodium deoxycholate, 0.1% SDS, […], pH 8.0). […] Protein concentrations were again determined and adjusted to equal levels prior to the addition of streptavidin magnetic beads (Invitrogen). […] The eluted material was separated on 12% Bis-Tris gels and analyzed by Western blotting. Chemiluminescence was recorded with a LAS 3000 ECL camera system (Fuji Photo Film GmbH, Duesseldorf, Germany) or on CL-XPosure film (Fisher Scientific GmbH, Schwerte, Germany). […]

Turning to `O=C(O)CC1CCN(C(C#CCCCCOC(=O)CCCC[C@@H]2SC[C@@H]3NC(=O)N[C@@H]32)c2ccc(C3(C(F)(F)F)N=N3)cc2)C(c2ccc(C(F)(F)F)cc2)C1` (stereo partly drawn) [AR243, 2-(1-(7-((5-((3aS,4S,6aR)-2-oxohexahydro-1H-thieno[3,4-d]imidazol-4-yl)pentanoyl)oxy)-1-(4-(3(trifluoromethyl)-3H-diazirin-3-yl)phenyl)hept-2-yn-1-yl)-2-(4(trifluoromethyl)phenyl)piperidin-4-yl)acetic acid], the “Photo-affinity labeling of PSEN1-NTF (Western blotting)” value is recorded as “bound the N-terminal fragment of PSEN1”.
